# Data: PubChem BioAssay AID1508642 (National Center for Advancing Translational Sciences (NCATS), 2021)
# Screen size: about 43,000 compounds; about 200 (0.47%) were called active. Not shown: some 12% with an inconclusive outcome. Calls follow the shape of the dose curve; as a rule, active = well fitted cell-killing curve with a large enough effect; inconclusive = small, poorly fitted or top-dose-only effect, or effect the other way; inactive = flat fitted curve, though single readings scatter. Some of the results follow.
# Test: Cell viability qHTS assay in S16 Pmp22-F2sN cells; also: nearly all actives have a fitted effect of over 65% in size
# Conditions: S16 Pmp22-F2sN Schwann cells (luciferase reporters placed in the Pmp22 gene) viability, CellTiter-Glo, 24 h; series mostly up to 57.5 µM; activity change, negative = cytotoxicity: at the top concentration
# Procedure, shortened: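 Luminescence from CellTiter-Glo, read by CCD camera after a 15 min room-temperature incubation, served as the viability signal. Reporter Schwann cells (S16 Pmp22-F2sN) had been treated with pin-transferred compounds for 24 h at 37C.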
# % is scaled to controls: 0 for no effect and ±100 for the full control effect.
row,Structure (SMILES),"activity change, negative = cytotoxicity"
1,CCCC(=O)Nc1cccc(-c2cn3c(C)csc3n2)c1,inactive: 23.8%
2,Cc1c(Cl)cccc1NC(=O)C1CCN(c2nc3ccccc3[nH]2)CC1,inactive: 2.83%
3,COC(=O)c1sccc1S(=O)(=O)N(CC(=O)Nc1ccccc1)c1ccccc1,inactive: 14.6%
4,CCc1ccc(CNC(=O)c2cnc3c(C)cccn3c2=O)cc1,inactive: -2.45%
5,CSc1ccc(CCNC(=O)c2cc3cc4cc(C)ccc4nc3s2)cc1,inactive: 14.2%
6,Cc1ccc(Cn2c(=O)c3cccnc3n(CC(=O)Nc3cc(Cl)ccc3C)c2=O)cc1,inactive: -3.82%
7,CCc1nn(CC(=O)NCCCc2ccccc2)c(=O)c2cc3ccccc3n12,inactive: 8.82%
8,Cc1c(Cl)cccc1NC(=O)Cn1c(=O)n(Cc2nc(-c3ccccc3)no2)c(=O)c2cc3c(cc21)OCO3,inactive: 16.5%
9,Cc1ccc(C(=O)Nc2ccc3oc(-c4ccccc4C)nc3c2)cc1,inactive: 2.53%
10,CCCCNC(=O)c1ccc2c(c1)NC(=O)C(CS(=O)(=O)Cc1ccc(C)cc1)N2 (stereo not given),inactive: 4.23%
11,CC(=O)N1CCc2c(sc3c2c(=O)n(-c2ccc(C)cc2)c(=O)n3Cc2ccccc2C)C1,inactive: -2.44%
12,Cc1ccc2oc(=O)n(CCNC(=O)Nc3ccc(Cl)cc3)c2c1,inactive: -7.95%
13,Cc1cc(C(=O)NCc2ccccc2Cl)c2c(C)nn(-c3cccc(F)c3)c2n1,inactive: -5.84%
14,O=C(NCC(c1ccco1)S(=O)(=O)c1cccs1)c1ccc(Cl)cc1 (stereo not given),inactive: -10%
15,CCCN(C(=O)Nc1cn(CC(C)C)c(=O)c2ccccc12)c1ccc(F)cc1,inactive: -3.94%
16,Cc1cc(Cl)ccc1NC(=O)CCCn1nc(C)c2c(C)n(-c3ccccc3)nc2c1=O,inactive: 1.78%
17,Cc1cc(C)cc(NC(=O)CSc2nc3sc4c(c3c(=O)[nH]2)CCCC4)c1,inactive: 14%
18,CCC1CN(C(=O)Nc2cc(Cl)c(OC)cc2OC)c2ccccc2O1 (stereo not given),inactive: 1.74%
19,COc1ccc(-c2noc(CC(=O)Nc3ccc(C)c(F)c3)n2)cc1,inactive: 9.44%
20,COc1cc(OC)c(C2C(C(=O)Nc3ccccc3)=C(C)Nc3ncnn32)cc1OC (stereo not given),inactive: 5.62%

row,Structure (SMILES),"activity change, negative = cytotoxicity"
1,CCCCN(C)S(=O)(=O)c1ccc(C(=O)Nc2ccc(-c3nc4ccc(C)cc4s3)cc2)cc1,inactive: 2.54%
2,Cc1cc(NC(=O)c2cccn2-c2nnc(N3CCCCC3)s2)ccc1Br,inactive: -13.9%
3,CCN1CCN(c2oc(/C=C/c3cc(OC)c(OC)c(OC)c3)nc2C#N)CC1,inactive: -9.79%
4,Cc1ccc(Cl)cc1NC(=O)c1oc2ccc(S(=O)(=O)N3CCCCCC3)cc2c1C,inactive: -0.616%
5,Cn1cc(S(=O)(=O)c2cccc(Cl)c2)c(=O)c2cc(F)c(N3CCCCC3)cc21,inactive: 1.83%
6,O=C(NCCc1ccc(Cl)cc1)c1ccc(CSCc2cccc(Cl)c2)o1,inactive: -6.48%
7,CCc1cccc(C)c1NC(=O)CSc1nc2c(c(=O)[nH]1)CCC2,inactive: 6.87%
8,CCCN1C(=O)C(Cc2nc3ccccc3c(=O)n2-c2ccc(OC)cc2)c2cc(C)ccc21 (stereo not given),inactive: -2.16%
9,Cc1cc(C)cc(OCC(=O)N2CCC(c3nc4ccccc4s3)CC2)c1,inactive: 0.569%
10,COc1ccccc1C(=O)Nc1ccc(S(=O)(=O)Nc2ncccn2)cc1,inactive: -29.7%
11,Cc1ccc(C)c(N2CCN(C(=O)C(CC(C)C)NS(=O)(=O)c3ccc4nc(C)sc4c3)CC2)c1 (stereo not given),inactive: 1.55%
12,NC(=O)CSc1nc2ccc(NC(=O)COc3ccccc3Cl)cc2s1,inactive: 17.9%
13,Cc1ccc(C)c(N2CCN(c3nc4ccc(C(=O)c5ccccc5)cc4n4cnnc34)CC2)c1,inactive: 12%
14,Cc1cccc(OCCCn2c(CCNC(=O)C3CCCCC3)nc3ccccc32)c1,inactive: -27.5%
15,COc1ccccc1CN(Cc1c(Cl)cccc1Cl)S(=O)(=O)c1ccc(Br)cc1,inactive: -0.838%
16,CCOc1ccc(-c2cc(C(=O)NCCc3ccc(OC)c(OC)c3)c3c(-c4ccc(F)cc4)[nH]nc3n2)cc1,inactive: -7.22%
17,COc1ccc(Cl)cc1NC(=O)c1cc(S(=O)(=O)N(C)Cc2ccccc2)ccc1F,inactive: 3.49%
18,Cc1cccc(NC(=O)N2CCC(CN3CCCCCC3)CC2)c1C,inactive: -9.18%
19,CC1CCN(S(=O)(=O)c2ccc3c(c2)CCN3C(=O)Nc2ccc(Br)cc2F)CC1,inactive: -0.519%
20,Cc1ccc(C2CCN(C(=O)c3cnn(-c4ccc(C)c(C)c4)c3C3CCN(C(=O)OC(C)(C)C)CC3)C2)cc1 (stereo not given),inactive: 12.7%

row,Structure (SMILES),"activity change, negative = cytotoxicity"
1,CCOc1ccccc1C(=O)N1CCC(c2nc3ccccc3o2)CC1,inactive: -8.71%
2,Cc1nc(SCC(=O)Nc2ccc(C(=O)O)cc2)n[nH]1,inactive: -0.785%
3,CCc1ccccc1NC(=O)Cn1nc(N2CCN(c3ccccc3OC)CC2)ccc1=O,inactive: -0.755%
4,Cc1cccc(NC(=O)CN2C(=O)CSc3ccc(S(=O)(=O)N4CCCC4)cc32)c1C,inactive: 16.4%
5,CCOc1ccc(N(CC)S(=O)(=O)N2CCCC(C(=O)Nc3ccc(OC)c(Cl)c3)C2)cc1 (stereo not given),inactive: 3.99%
6,Cc1nn(C(=O)c2cccc([N+](=O)[O-])c2C)c(C)c1S(=O)(=O)N1CCCCCC1,inactive: -3.03%
7,O=C(Nc1ccccc1C(F)(F)F)N1CC=C(c2c[nH]c3ccccc23)CC1,inactive: -22%
8,COC(=O)CC(=O)CSc1nc2cc(C(=O)NCC(C)C)ccc2c(=O)n1CCc1ccccc1,inactive: -0.508%
9,COc1ccc(-c2onc(C)c2C)cc1S(=O)(=O)N1CCN(c2cc(C)ccc2C)CC1,inactive: 3.9%
10,COc1ccc(-c2cc3nc(C)c(CCC(=O)NC(C)c4ccccc4)c(C)n3n2)c(OC)c1 (stereo not given),inactive: 0.316%
11,CCOC(=O)C(C)Sc1nc(-c2ccccc2)ccc1C#N (stereo not given),inactive: 19.7%
12,Cc1ccc(NC(=O)c2ccc3snnc3c2)cc1C,inactive: 6.38%
13,CCC(C)NC(=O)c1c(C)oc2nc(C)nc(N3CCOCC3)c12 (stereo not given),inactive: -1.68%
14,COC(=O)c1ccccc1NC(=O)c1nn(-c2ccc(OC)cc2)c(=O)c2c1c1ccccc1n2C,inactive: 2.88%
15,COc1cccc(NC(=O)C2CCN(S(=O)(=O)c3ccc4[nH]c5c(c4c3)CCCCC5)CC2)c1,inactive: -29.2%
16,COc1ccc(-c2cc(C(=O)NCCc3ccc(OC)c(OC)c3)c3c(-c4ccc(F)cc4)[nH]nc3n2)cc1,inactive: 1.46%
17,CCOC(=O)c1ccc(NC(=O)Cn2c3ncccc3c(=O)n2-c2ccc(C)c(C)c2)cc1,inactive: 0.304%
18,Cc1cc(C)n(-c2nc(C)c(C)c(=O)n2CC(=O)Nc2cccc([N+](=O)[O-])c2)n1,inactive: -0.0264%
19,CCOc1ccc(S(=O)(=O)N2CCC(c3ccncc3)CC2)cc1,inactive: -14.6%
20,COc1cccc(NC(=O)c2oc3ccc(S(=O)(=O)N4CCCCCC4)cc3c2C)c1,inactive: -1.82%
